The text below walks through data of the supplement of paper PMC7826260.

The other results are listed elsewhere or left out. One pool of 16,384 single-stranded DNAs met each Rep nickase domain in vitro (3 µM enzyme, 1 h, 37 °C); shown is the middle of each 90-letter strand. The score is log2 (uncut reads / reads without enzyme); uncut sequences lie near 0, cut ones below; no hit call is given. Reads are scaled to the total; where an enzyme cuts many sequences, the uncut ones exceed 0.

Assay in all cases: uncleaved DNA left, log2 of reads against the no-enzyme library (log2 ratio); higher = less cleavage (more negative = more Rep cleavage of the k-mer); sequences stand for … in CTCGTCCG…ACCGGAGA
Test [1] deals with T1, Rep nickase domain of Muscovy duck circovirus.
T1 sequence (residues 1-111, tag not shown): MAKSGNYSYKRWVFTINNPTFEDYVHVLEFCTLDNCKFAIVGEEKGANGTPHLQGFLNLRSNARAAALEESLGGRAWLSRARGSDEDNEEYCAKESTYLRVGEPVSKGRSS
As to the method:
(§1)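 A pool of 90-nt single-stranded DNAs with seven random bases just before the constant AC of the nick site (name = the seven bases) was cut by 3 µM recombinant His6-SUMO-tagged Rep nickase domain (300 nM DNA, 50 mM HEPES pH 8.0, 50 mM NaCl, 1 mM MnCl2, 1 h, 37 °C, three replicates). Uncut DNA was amplified and sequenced.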

Test [2] has as its system T2, Rep nickase domain of banana bunchy top virus.
T2 sequence (residues 1-94, tag not shown): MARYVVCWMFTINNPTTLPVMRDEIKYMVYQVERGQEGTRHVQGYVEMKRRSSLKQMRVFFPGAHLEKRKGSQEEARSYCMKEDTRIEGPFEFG
How it is done: as §1
Test [3] deals with T3, Rep nickase domain of cabbage leaf curl virus.
T3 sequence (residues 1-116, tag not shown): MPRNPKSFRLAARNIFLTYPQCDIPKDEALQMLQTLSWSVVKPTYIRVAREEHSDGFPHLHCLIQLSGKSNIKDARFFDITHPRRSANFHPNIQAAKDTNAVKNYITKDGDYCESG
How it is done: as §1
Test [4] concerns T4, Rep nickase domain of chickpea chlorotic dwarf virus.
T4 sequence (residues 1-124, tag not shown): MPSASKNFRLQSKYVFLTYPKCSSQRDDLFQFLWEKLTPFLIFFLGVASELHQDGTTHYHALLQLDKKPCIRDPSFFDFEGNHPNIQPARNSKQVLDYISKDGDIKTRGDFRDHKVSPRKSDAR
How it is done:
as §1

The test system of test [5] is T5, Rep nickase domain of faba bean necrotic yellows virus.
T5 sequence (residues 1-98, tag not shown): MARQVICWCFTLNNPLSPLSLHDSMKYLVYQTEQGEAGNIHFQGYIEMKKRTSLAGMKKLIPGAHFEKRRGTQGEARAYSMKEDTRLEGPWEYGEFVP
As to the method: as §1
The test system of test [6] is T6, Rep nickase domain of maize striate mosaic virus.
T6 sequence (residues 1-117, tag not shown): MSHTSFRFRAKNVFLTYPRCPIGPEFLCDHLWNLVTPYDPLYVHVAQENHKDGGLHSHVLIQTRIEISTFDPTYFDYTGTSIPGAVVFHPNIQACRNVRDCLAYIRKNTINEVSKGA
How it is done: as §1
The test system of test [7] is T7, Rep nickase domain of porcine circovirus 2.
T7 sequence (residues 2-116, tag not shown): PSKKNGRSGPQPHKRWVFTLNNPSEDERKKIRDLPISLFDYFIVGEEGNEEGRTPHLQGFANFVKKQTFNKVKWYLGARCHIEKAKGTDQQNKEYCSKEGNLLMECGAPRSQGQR
How it is done:
as §1

In test [8] the test system is T8, Rep nickase domain of tomato yellow leaf curl virus.
T8 sequence (residues 1-136, tag not shown): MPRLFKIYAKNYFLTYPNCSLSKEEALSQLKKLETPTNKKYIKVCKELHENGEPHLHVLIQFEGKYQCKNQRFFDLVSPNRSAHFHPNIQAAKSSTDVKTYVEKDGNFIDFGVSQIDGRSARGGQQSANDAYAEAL
As to the method:
as §1

Test [9] concerns T9, Rep nickase domain of wheat dwarf virus.
T9 sequence (residues 1-137, tag not shown): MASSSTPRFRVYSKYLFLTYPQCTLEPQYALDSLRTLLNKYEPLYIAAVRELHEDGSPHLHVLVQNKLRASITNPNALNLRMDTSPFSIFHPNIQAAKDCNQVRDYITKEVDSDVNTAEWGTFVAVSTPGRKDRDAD
As to the method:
as §1

With TAATAAG, the “uncleaved DNA left (log2)” value in test [1] was 0.0636; in [2], -0.0666; in [3] it was -1.25; in test [4], -1.85; in [5], 0.00255; in test [6], -1.2. Further, the “uncleaved DNA left (log2)” value in test [7] is 0.104; in [8] it was -0.0167; in test [9] it was -0.0741.

For the sequence AACCCAG, the “uncleaved DNA left (log2)” value in test [1] is -0.0678; in [2], 0.139; in test [3], -0.558; in [4], -0.542; in test [5], 0.0539; in [6], -0.936. Moreover, the “uncleaved DNA left (log2)” value in test [7] was -0.402; in test [8], 0.122; in test [9], 0.0596.

Turning to AGCGATG, the “uncleaved DNA left (log2)” value was -0.0815 in test [1]; 0.104 in test [2]; -0.0315 in test [3]; 0.718 in test [4]; -0.048 in test [5]; 1.66 in test [6]. Besides, the “uncleaved DNA left (log2)” value in test [7] was 0.188; in test [8], -0.0213; in [9], 0.203.

In the case of AGAACTG, the “uncleaved DNA left (log2)” value in test [1] is 0.0262; in test [2] it was 0.0322; in test [3], -0.00617; in test [4] it was 0.675; in test [5] it was 0.0223; in [6], 1.7. The “uncleaved DNA left (log2)” value in test [7] was 0.0541; in [8], -0.0165; in test [9], 0.0725.

For GAGTACG, the “uncleaved DNA left (log2)” value in [1] is -0.0232; in test [2] it was -0.0453; in [3], -0.546; in test [4], -0.367; in [5], 0.0644; in test [6], -0.785. The “uncleaved DNA left (log2)” value in [7] is -0.069; in test [8] it was -0.0367; in test [9] it was -0.13.

Consider AACCCAA, for which the “uncleaved DNA left (log2)” value was 0.112 in test [1]; 0.161 in test [2]; 0.313 in test [3]; 0.192 in test [4]; -0.00494 in [5]; -0.0993 in [6]. Further, the “uncleaved DNA left (log2)” value in [7] is -0.237; in test [8], 0.00806; in [9], 0.109.

Regarding CACCAGC, the “uncleaved DNA left (log2)” value in [1] was 0.0609; in test [2], 0.101; in test [3], -0.518; in test [4], -0.575; in test [5] it was 0.0558; in test [6] it was -0.971. The “uncleaved DNA left (log2)” value worked out at 0.00679 in [7], 0.14 in test [8] and 0.00875 in [9].

For the sequence ACAAACT, the “uncleaved DNA left (log2)” value in [1] was -0.0976; in test [2], -0.149; in test [3] it was -0.572; in test [4] it was -3.21; in [5] it was -0.0775; in test [6], -1.11. Further, the “uncleaved DNA left (log2)” value in [7] is -0.154; in test [8] it was -0.155; in test [9], -0.116.

TAGGCAT: the “uncleaved DNA left (log2)” value came out at 0.0844 in [1]; 0.15 in test [2]; 0.546 in test [3]; 1.38 in test [4]; 0.169 in test [5]; 1.77 in test [6]. Further, the “uncleaved DNA left (log2)” value in test [7] was -0.281; in test [8], 0.238; in test [9], 0.165.

TTGCTGC: the “uncleaved DNA left (log2)” value in [1] was 0.0338; in test [2], -0.0343; in [3], -0.31; in test [4], -0.403; in test [5], 0.0394; in test [6], -0.884. The “uncleaved DNA left (log2)” value in test [7] was 0.065; in [8], 0.0101; in test [9], -0.0207.

Turning to AGCCCTC, the “uncleaved DNA left (log2)” value in test [1] is 0.127; in test [2], 0.00265; in test [3], 0.719; in test [4], 1.48; in [5] it was -0.00624; in [6] it was 1.67. Further, the “uncleaved DNA left (log2)” value amounted to 0.0484 in [7], 0.0414 in test [8] and 0.185 in [9].

Consider AAATTAC, for which the “uncleaved DNA left (log2)” value is 0.0166 in test [1]; 0.0989 in test [2]; -1.04 in test [3]; -2.55 in test [4]; 0.142 in test [5]; -0.97 in [6]. Moreover, the “uncleaved DNA left (log2)” value in test [7] is 0.0351; in test [8], 0.057; in [9] it was -0.113.

For the sequence CGGGAAT, the “uncleaved DNA left (log2)” value in test [1] was found to be 0.175; in test [2], 0.0603; in test [3] it was 0.788; in test [4] it was 1.95; in test [5] it was 0.164; in test [6] it was 2.2. The “uncleaved DNA left (log2)” value turned out to be 0.132 in test [7], 0.127 in [8] and 0.29 in test [9].

As for TCACCTA, the “uncleaved DNA left (log2)” value in test [1] is -0.103; in [2], -0.102; in test [3], -0.046; in test [4], -1.15; in test [5], -0.0847; in [6], -0.57. For the same sequence, the “uncleaved DNA left (log2)” value is -0.419 in test [7], -0.124 in [8] and -0.0777 in [9].

Consider TATGTCT, for which the “uncleaved DNA left (log2)” value in [1] is -0.161; in test [2], -0.495; in test [3], -1.56; in [4], -2.75; in [5], -0.159; in test [6] it was -1.04. In addition, the “uncleaved DNA left (log2)” value in test [7] was -0.864; in [8], -0.124; in test [9], -0.371.
